From PubChem BioAssay AID485344 (National Center for Advancing Translational Sciences (NCATS), 2010)
Among all 340,000 compounds or so, about 6,900 (2%) were called active. Cut-off read from the data, not from the text of the source: active = inhibition above about 30%; inactive = below that, where a call was filed. Only a part is listed here, and it is no random draw. Where no call is shown, the source filed none.

These molecules were tested against D(2) dopamine receptor (Homo sapiens) (UniProt P14416) (assay: HTS Assay for Allosteric Antagonists of the Human D2 Dopamine Receptor: Primary Screen for Antagonists). Details: HEK293 TREx D2 cells, calcium flux, dopamine EC80; at 10 µM; stronger effect = higher value.
How it was run: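 Dopamine at EC80 is the agonist stimulus; test compounds precede it by 180 s. Calcium flux read kinetically in a force-coupled, inducible HEK293 T-REx D2 cell line.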
Note: 0% is about no effect.

Sequence of UniProt P14416 (P14416 whole entry, looked up): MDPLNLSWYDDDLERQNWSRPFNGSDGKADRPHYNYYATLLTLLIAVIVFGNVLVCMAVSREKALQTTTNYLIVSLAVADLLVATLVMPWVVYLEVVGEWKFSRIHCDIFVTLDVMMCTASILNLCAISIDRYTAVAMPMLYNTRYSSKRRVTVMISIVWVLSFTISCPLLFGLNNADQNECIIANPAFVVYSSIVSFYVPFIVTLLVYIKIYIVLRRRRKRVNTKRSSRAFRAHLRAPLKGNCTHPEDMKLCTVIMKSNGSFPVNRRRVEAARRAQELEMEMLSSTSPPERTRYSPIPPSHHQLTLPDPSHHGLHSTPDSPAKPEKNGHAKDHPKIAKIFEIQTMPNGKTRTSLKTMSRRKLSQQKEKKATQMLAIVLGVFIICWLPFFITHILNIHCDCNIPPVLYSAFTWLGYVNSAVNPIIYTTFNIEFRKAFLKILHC

Row | Compound | inhibition
1 | Cc1ccc(NC(=O)CC2Oc3ccccc3NC2=O)cc1C (centres undefined) | 4.88%
2 | COc1ccc(C2=C(N3CCN(c4cccc(C)c4C)CC3)c3ccccc3C2=O)cc1 | -2.31%
3 | Cc1cccc(N2CCN(CCCNC(=O)c3ccc(NC(=O)C4=CSCCO4)cc3)CC2C)c1 (centres undefined) | active: 36.3%
4 | Cc1c(C(=O)NCc2cccc(Cl)c2)sc2nc3n(c(=O)c12)CCCC3 | 6.64%
5 | CN1C(=O)Cc2cc(S(=O)(=O)NCc3ccccc3Cl)ccc21 | -6.38%
6 | O=C(c1ccc(Br)cc1)N(Cc1ccco1)c1ccccn1 | -10.7%
7 | O=C(Nc1ccc2c(c1)OCO2)c1cnn2cccnc12 | active: 68.9%
8 | CCc1ccc(CNC(=O)c2cccc(-n3c(C)nc4cccnc43)c2)cc1 | 0.603%
9 | CCCc1ccc(OCc2ccc(C(=O)Nc3ccccc3C(=O)OC)o2)cc1 | -3.06%
10 | Cc1ccc(-n2c(C)nc3c(cnn3-c3ccccc3)c2=O)cc1 | 18.2%
11 | COc1ccc(N(CC(=O)N2CCCCC2)S(=O)(=O)c2ccc(OC)c(OC)c2)cc1 | 8.67%
12 | Cc1ccc2oc(C(=O)N3CCC(c4nc5ccccc5s4)CC3)c(C)c2c1 | -8.09%
13 | CC(=O)c1ccc(NC(=O)CCn2cccn2)cc1 | 8.86%
14 | CCc1cccc(NC(=O)C2CCCN2S(=O)(=O)c2ccc3nc(-c4ccccc4)[nH]c3c2)c1 (centres undefined) | -1.74%
15 | CCOc1ccc(NC(=O)[C@@H](NC(=O)c2ccco2)C(C)C)cc1 | active: 39%
16 | Cc1ccc(OCCN2CCN(c3nc(NCc4ccco4)c4ccccc4n3)CC2)cc1 | active: 37.6%
17 | COc1ccc(CNC(=O)C(CC(C)C)NS(=O)(=O)c2ccc3c(c2)oc(=O)n3C)cc1 (centres undefined) | -23.4%
18 | CCc1cccc(NC(=O)c2cc3c(=O)oc4ccc(C)cc4c3s2)c1 | 26.4%
19 | CCCCN(CC)C(=O)c1ccc2c(c1)NC(=O)c1ccccc1S2 | 2.48%
20 | CSc1nnc(NC(=O)c2cc(=O)c3cc(C)c(C)cc3o2)s1 | 18%
21 | Cc1ccc(S(=O)(=O)c2cn(Cc3ccccc3)c3cc(N4CCCC4)c(F)cc3c2=O)c(C)c1 | 5.51%
22 | CCOc1c(CNCCSc2nnnn2C)cccc1OC | 2.54%
23 | Cc1cccc(C)c1NC(=O)C(=O)NCC(c1ccc2c(c1)OCO2)N1CCN(C)CC1 (centres undefined) | -10.5%
24 | COc1ccc(OC)c([C@@H]2Nc3ccc(C(=O)O)cc3[C@@H]3C=CC[C@@H]32)c1 | -5.67%
25 | COc1ccc(C)cc1NC(=O)c1nnn(CC(=O)Nc2c(C)cccc2C)c1N | -4.25%

Row | Compound | inhibition
26 | Cc1ccc(C)c(S(=O)(=O)c2nnn3c2nc(NC2CCCC2)c2sccc23)c1 | -25.3%
27 | CC1CCC(NC(=O)c2ccc3c(c2)N(Cc2ccccc2F)C(=O)c2ccccc2S3(=O)=O)CC1 (centres undefined) | 9.7%
28 | CCOc1ccccc1Oc1ncnc2c1oc1ccccc12 | -18.3%
29 | Cc1ccc(S(=O)(=O)Nc2ccc(-c3ccc(N4CCCCCC4)nn3)cc2)c(C)c1 | -8.24%
30 | CCOc1ccccc1CNCc1c(C(=O)O)n(Cc2ccccc2)c2cc(OC)ccc12 | 17.9%
31 | CCOC(=O)c1cc(C)n(CC2CCC(C(=O)Nc3cccc(C(C)=O)c3)CC2)c1C (centres undefined) | -5.02%
32 | CCOc1ccccc1C1C(C(=O)Nc2ccccc2)=C(C)Nc2nc(-c3ccccc3)nn21 (centres undefined) | -13.3%
33 | COc1ccccc1OCc1nc2ccccc2n1Cc1ccccc1 | -14.9%
34 | CCOc1ccccc1NCc1nnc2n1CCCCC2 | -26.9%
35 | CC(C)NC(=O)CSc1cn(CC(=O)N2CCCCCC2)c2ccccc12 | -7.55%
36 | COc1ccc(N2CCN(C(=O)c3cnc(N4CCOCC4)c4ccccc34)CC2)cc1 | 4.54%
37 | CCc1ccccc1N(C)C(=O)c1nn(-c2ccc(OC)cc2)c(=O)c2c1c1ccccc1n2C | -10.4%
38 | CCOc1ccc(CNc2cc(C)nc3nc(-c4cccc(C)c4)nn23)cc1OC | 5.15%
39 | Cc1cccc(NC(=O)c2ccc3oc(=O)c(S(=O)(=O)c4ccc(F)cc4)cc3c2)c1C | -14.2%
40 | CC1CCc2c(sc3nnn(Cc4ccccc4Cl)c(=O)c23)C1 (centres undefined) | -6.96%
41 | CCCC(C)C(=O)OCC(=O)Nc1c(Br)cc(C)cc1Br (centres undefined) | active: 39.9%
42 | CCOc1ccc(S(=O)(=O)c2cc3cccc(OCC)c3oc2=O)cc1 | 0.105%
43 | CC(=O)c1ccc(NC(=O)c2nc(-c3ccccc3)n(-c3ccc(C)cc3)n2)cc1 | 3.27%
44 | CCCOC(=O)c1cccc(NC(=O)CSc2nnc3cc(C)c4ccccc4n23)c1 | 1.02%
45 | O=C(Cc1ccccc1[N+](=O)[O-])NCc1ccc(Cl)cc1Cl | active: 32.9%
46 | COc1ccccc1NC(=O)Cn1c(=O)oc2cc(S(=O)(=O)NCc3ccccc3)ccc21 | -5.45%
47 | Clc1ccc2nc(-c3ccc(N4CCOCC4)cc3)c(Nc3ccccc3)n2c1 | 2.39%
48 | O=C(NCc1cccc(Cl)c1)C1CCCN(c2nn3cc(-c4ccc(F)cc4)nc3s2)C1 (centres undefined) | 0.184%
49 | CCc1ccc(-c2nc(CS(=O)CC(=O)NCc3ccc(F)cc3)c(C)o2)cc1 (centres undefined) | 0.284%
50 | Cc1ccc(Cl)cc1NC(=O)CN1C(=O)c2ccccc2Sc2ncccc21 | 17.3%

Row | Compound | inhibition
51 | Cc1ccc(CNS(=O)(=O)c2c(C)nc3sc(C)cn3c2=O)cc1 | 22.3%
52 | CCCn1cnc2cc(NC(=O)c3cc(OC)c(OC)c(OC)c3)ccc21 | -0.369%
53 | COc1ccc(CCNC(=O)c2ccc3c(c2)nc2n3CCCCC2)cc1OC | 8.88%
54 | Cc1cccc(N2CCN(Cc3nnc(-c4cccc(Br)c4)o3)CC2)c1C | -19.2%
55 | Cc1cc(NC(=O)c2ccco2)cc(-c2nc3ccccc3o2)c1O | -11.5%
56 | CCN(C(=O)CCS(=O)(=O)c1cc2c(cc1C)NC(=O)CO2)c1cccc(C)c1 | 15.1%
57 | CCn1c(C)c(C)c2cc(C(=O)N3CCN(c4ccccc4)CC3)ccc21 | 4.03%
58 | CN(C)CCN(Cc1ccccc1)S(=O)(=O)c1csc(C(N)=O)c1 | 2.28%
59 | O=C(Cn1ncn2cccc2c1=O)NCc1cccc(Br)c1 | 25.7%
60 | COc1ccc(N(CC(C)C)S(=O)(=O)c2nnc(NC(=O)c3ccco3)s2)cc1 | -1.01%
61 | CCOC(=O)N1CCN(Cc2nc3cc([N+](=O)[O-])ccc3n2CC)CC1 | active: 36.7%
62 | Cc1c(Cl)cccc1NC(=O)Cn1c(=O)cc(C)c2c(C)nn(-c3cccc(F)c3)c21 | -17.2%
63 | COc1ccccc1Cc1nc2ccccc2nc1SCC(=O)Nc1c(C)cccc1C | 8.32%
64 | CCC(=O)Nc1cc(-c2cn3cccnc3n2)ccc1OC | -13.2%
65 | CC1=C(C(=O)Nc2ccccc2)C(C(C)C)n2nc(SCc3ccccc3C)nc2N1 (centres undefined) | -13%
66 | CCOc1ccc(-c2cn3c(n2)sc2cc(C(=O)NCCCN4CCCCC4)ccc23)cc1 | -11.8%
67 | O=c1[nH]c2c(c(=O)[nH]1)CCC2 | active: 36.9%
68 | COc1cc(NC(=O)c2ccc(-c3nc(CSc4ccccc4)c(C)o3)cc2)cc(OC)c1 | -7.98%
69 | CCc1ccc(NC(=O)Cn2nc(C(F)(F)F)c3c2CCCC3)cc1 | 2.08%
70 | COCCCn1c(C)cc(C(=O)COC(=O)CCc2nc3ccccc3c(=O)[nH]2)c1C | active: 30.5%
71 | CCCCc1nn2c(=O)cc(COC(=O)c3ccc4c(c3)OCO4)nc2s1 | 4.71%
72 | CCOC(=O)c1cc(-c2ccc(OC)cc2)n(CCC(=O)Nc2cccc(C)c2C)c1C | -3.5%
73 | O=C(CCCn1c(=O)[nH]c2ccc(Br)cc2c1=O)N1CCN(c2cccc(Cl)c2)CC1 | 0.747%
74 | COc1ccccc1C(=O)NCC(c1ccc(N(C)C)cc1)N1CCc2ccccc21 (centres undefined) | 6.1%
75 | COc1cc(OC)cc(-n2c(=O)c3ccccc3n(Cc3ccccc3C#N)c2=O)c1 | 16.1%

Row | Compound | inhibition
76 | CC1CCN(S(=O)(=O)c2ccc3ncn(CC(=O)N4CCN(C)CC4)c(=O)c3c2)CC1 | active: 48.4%
77 | COC(=O)c1ccccc1NC(=O)Cn1nnc(-c2ccc(OC)cc2)n1 | -18.3%
78 | Cc1noc(/C=C/NCc2cccnc2)c1S(=O)(=O)N(C)CC(=O)N1CCc2ccccc21 | active: 57.2%
79 | COc1cc(Nc2nn(-c3ccc(OC(F)(F)F)cc3)nc2C(C)=O)cc(OC)c1 | 3.92%
80 | COc1ccc(C(=O)O)c(OC)n1 | active: 30.1%
81 | O=C(NCCc1ccc(Cl)cc1)c1ccc2nc(CCc3ccccc3)oc2c1 | 6.24%
82 | COc1cc(OC)cc(-c2nnc(SCC(=O)c3ccc([N+](=O)[O-])cc3)o2)c1 | 4.87%
83 | Cc1nc(S(=O)(=O)N2CCN(c3cccc(Cl)c3)CC2)cn1C | -11.9%
84 | CC(C)Cn1c(CN2CCN(c3cccc(Cl)c3)CC2)nc2c1c(=O)[nH]c(=O)n2C | -15.1%
85 | COc1ccc(N(CC(=O)NCCc2ccc(C)cc2)S(=O)(=O)c2c(C)nn(C)c2C)cc1 | -2.07%
86 | CC(C)=C1C2CCC1C1C(=O)N(NC(=O)COc3ccc(C(C)(C)C)cc3)C(=O)C21 (centres undefined) | active: 32.1%
87 | CC(C)Cn1c(-c2ccccc2Cl)nc2ccccc21 | -0.841%
88 | O=C(NCCc1ccc(Cl)cc1)c1nnc(Cc2ccc(Cl)cc2Cl)o1 | 7.49%
89 | CCOc1ccc(-c2c(C)nn3c(C)c(C(=O)NCCN(C)C)cnc23)cc1OCC | 9.12%
90 | COc1ccccc1N=c1oc2cc(O)ccc2cc1C(=O)NCC1CCCO1 (centres undefined) | active: 35.6%
91 | Cn1c(=O)c2c(nc(N3CCOCC3)n2Cc2ccccc2Cl)n(C)c1=O | -11.1%
92 | COCCCNC(=O)CCCn1c(=O)c2ccccc2n(CC(=O)Nc2ccc(C)cc2Cl)c1=O | 8.83%
93 | CCCCNc1nc(CC(C)=O)ns1 | active: 30.2%
94 | Oc1ccccc1N1CCN(CC(O)COC2CCCc3ccccc32)CC1 (centres undefined) | active: 40.1%
95 | Cc1ccc(C(=O)O)cc1NC(=O)c1nsc2ccccc12 | 7.83%
96 | Cc1ccc(CNC(=O)c2cc(-c3ccc(C)c(C)c3)nc3ccccc23)cc1 | 3.72%
97 | Cc1ccc(Cl)cc1N1CCN(c2nc3ccccc3c3nc(-c4cccnc4)nn23)CC1 | -11.3%
98 | COc1ccc(CCNC(=O)CN2C(=O)COc3ccc(S(=O)(=O)N4CCCC4)cc32)cc1OC | -0.619%
99 | CCCOc1ccc(Oc2nc(NC)nc(N3CCOCC3)n2)nn1 | 2.38%
